# Data reported in the supplement of paper PMC8728848.
# The other results are listed elsewhere or left out.
# Key:
# Test in all cases: glycan array binding signal (z-score within array); higher = stronger binding
# Conditions in all cases: glycan notation: IUPAC condensed, linker removed
# Glc(a1-4)Glc = biological target: Glc(a1-4)Glc
# Procedure, shortened: (§1)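 The binding signal is a Z-score computed within each array. Data were drawn from 3228 arrays in the Consortium for Functional Glycomics database, restricted to those with a known protein sequence. Scores were averaged over arrays of the same protein sequence at different concentrations or buffers, and over linkers, and negative values can be taken as non-binding.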
# Glc(a1-6)Glc(a1-6)Glc = biological target: Glc(a1-6)Glc(a1-6)Glc
# Procedure, shortened: as §1
# Glc(b1-4)Glc = biological target: Glc(b1-4)Glc
# Procedure, shortened: as §1
# Glc(b1-6)Glc = biological target: Glc(b1-6)Glc
# Procedure, shortened: as §1
# GlcA(b1-3)Gal = biological target: GlcA(b1-3)Gal
# Procedure, shortened: as §1
# GlcA(b1-3)GlcNAc = biological target: GlcA(b1-3)GlcNAc
# Procedure, shortened: as §1
# GlcA(b1-6)Gal = biological target: GlcA(b1-6)Gal
# Procedure, shortened: as §1
# [1] = biological target: GlcNAc(a1-3)Gal(b1-4)GlcNAc
# Procedure, shortened: as §1
# [2] = biological target: GlcNAc(a1-4)Gal(b1-3)GlcNAc
# Procedure, shortened: as §1
# [3] = biological target: GlcNAc(a1-4)Gal(b1-4)GalNAc
# Procedure, shortened: as §1
# [4] = biological target: GlcNAc(a1-4)Gal(b1-4)GlcNAc
# Procedure, shortened: as §1
# [5] = biological target: GlcNAc(a1-4)Gal(b1-4)GlcNAc(b1-3)Gal(b1-4)Glc
# Procedure, shortened: as §1
# [6] = biological target: GlcNAc(a1-4)Gal(b1-4)GlcNAc(b1-3)Gal(b1-4)GlcNAc
# Procedure, shortened: as §1
# [7] = biological target: GlcNAc(a1-4)Gal(b1-4)GlcNAc(b1-3)Gal(b1-4)GlcNAc(b1-3)Gal(b1-4)GlcNAc
# Procedure, shortened: as §1
# [8] = biological target: GlcNAc(a1-4)Gal(b1-4)GlcNAc(b1-3)Gal(b1-4)[Fuc(a1-3)]GlcNAc(b1-3)Gal(b1-4)[Fuc(a1-3)]GlcNAc
# Procedure, shortened: as §1
# [9] = biological target: GlcNAc(a1-6)Gal(b1-4)GlcNAc
# Procedure, shortened: as §1
# [10] = biological target: GlcNAc(b1-2)Gal(b1-3)GalNAc
# Procedure, shortened: as §1
# [11] = biological target: GlcNAc(b1-2)Man(a1-3)[GlcNAc(b1-2)Man(a1-6)]Man(b1-4)GlcNAc(b1-4)GlcNAc
# Procedure, shortened: as §1
# [12] = biological target: GlcNAc(b1-2)Man(a1-3)[GlcNAc(b1-2)Man(a1-6)]Man(b1-4)GlcNAc(b1-4)[Fuc(a1-6)]GlcNAc
# Procedure, shortened: as §1
# GlcNAc(b1-3)Gal = biological target: GlcNAc(b1-3)Gal
# Procedure, shortened: as §1
# [13] = biological target: GlcNAc(b1-3)Gal(b1-3)GalNAc
# Procedure, shortened: as §1
# GlcNAc(b1-3)Gal(b1-4)Glc = biological target: GlcNAc(b1-3)Gal(b1-4)Glc
# Procedure, shortened: as §1
# [14] = biological target: GlcNAc(b1-3)Gal(b1-4)GlcNAc
# Procedure, shortened: as §1
# [15] = biological target: GlcNAc(b1-3)Gal(b1-4)GlcNAc(b1-3)Gal(b1-4)GlcNAc
# Procedure, shortened: as §1
# GlcNAc(b1-3)GalNAc = biological target: GlcNAc(b1-3)GalNAc
# Procedure, shortened: as §1
# GlcNAc(b1-3)Man = biological target: GlcNAc(b1-3)Man
# Procedure, shortened: as §1
# [16] = biological target: GlcNAc(b1-3)[GlcNAc(b1-4)][GlcNAc(b1-6)]GlcNAc
# Procedure, shortened: as §1
# [17] = biological target: GlcNAc(b1-3)[GlcNAc(b1-6)]Gal(b1-4)GlcNAc
# Procedure, shortened: as §1
# [18] = biological target: GlcNAc(b1-3)[GlcNAc(b1-6)]GalNAc
# Procedure, shortened: as §1
# [19] = biological target: GlcNAc(b1-4)Gal(b1-4)GlcNAc
# Procedure, shortened: as §1
# GlcNAc(b1-4)GlcNAc = biological target: GlcNAc(b1-4)GlcNAc
# Procedure, shortened: as §1
# [20] = biological target: GlcNAc(b1-4)GlcNAc(b1-4)GlcNAc
# Procedure, shortened: as §1
# [21] = biological target: GlcNAc(b1-4)GlcNAc(b1-4)GlcNAc(b1-4)GlcNAc(b1-4)GlcNAc
# Procedure, shortened: as §1
# [22] = biological target: GlcNAc(b1-4)GlcNAc(b1-4)GlcNAc(b1-4)GlcNAc(b1-4)GlcNAc(b1-4)GlcNAc
# Procedure, shortened: as §1
# [23] = biological target: GlcNAc(b1-4)[GlcNAc(b1-6)]GalNAc
# Procedure, shortened: as §1
# [24] = biological target: GlcNAc(b1-6)Gal(b1-4)GlcNAc
# Procedure, shortened: as §1
binder,measurement,setting,value
"Ficolin B (Rattus norvegicus), P57756 (protein) MVLGSAALFVLSLCVTELTLHAADTCPEVKVLDLEGSNKLTILQGCPGLPGALGPKGEAGAKGDRGESGLPGHPGKAGPTGPKGDRGEKGVRGEKGDTGPSQSCATGPRTCKELLTRGYFLTGWYTIYLPDCRPLTVLCDMDTDGGGWTVFQRRIDGTVDFFRDWTSYKQGFGSQLGEFWLGNDNIHALTTQGTNELRVDLADFDGNHDFAKYSSFQIQGEAEKYKLILGNFLGGGAGDSLTSQNNMLFSTKDQDNDQGSSNCAVRYHGAWWYSDCHTSNLNGLYLRGLHKSYANGVNWKSWKGYNYSYKVSEMKVRLI",glycan array binding signal (z-score),Glc(a1-4)Glc,-0.148
same,glycan array binding signal (z-score),Glc(a1-6)Glc(a1-6)Glc,-0.204
same,glycan array binding signal (z-score),Glc(b1-4)Glc,-0.206
same,glycan array binding signal (z-score),Glc(b1-6)Glc,-0.235
same,glycan array binding signal (z-score),GlcA(b1-3)Gal,-0.029
same,glycan array binding signal (z-score),GlcA(b1-3)GlcNAc,-0.174
same,glycan array binding signal (z-score),GlcA(b1-6)Gal,-0.208
same,glycan array binding signal (z-score),[1],-0.127
same,glycan array binding signal (z-score),[2],-0.094
same,glycan array binding signal (z-score),[3],-0.07
same,glycan array binding signal (z-score),[4],-0.141
same,glycan array binding signal (z-score),[5],-0.187
same,glycan array binding signal (z-score),[6],-0.137
same,glycan array binding signal (z-score),[7],-0.23
same,glycan array binding signal (z-score),[8],0.374
same,glycan array binding signal (z-score),[9],0.051
same,glycan array binding signal (z-score),[10],-0.163
same,glycan array binding signal (z-score),[11],-0.195
same,glycan array binding signal (z-score),[12],-0.195
same,glycan array binding signal (z-score),GlcNAc(b1-3)Gal,-0.258
same,glycan array binding signal (z-score),[13],-0.206
same,glycan array binding signal (z-score),GlcNAc(b1-3)Gal(b1-4)Glc,0.353
same,glycan array binding signal (z-score),[14],0.266
same,glycan array binding signal (z-score),[15],0.304
same,glycan array binding signal (z-score),GlcNAc(b1-3)GalNAc,-0.144
same,glycan array binding signal (z-score),GlcNAc(b1-3)Man,-0.186
same,glycan array binding signal (z-score),[16],-0.024
same,glycan array binding signal (z-score),[17],0.454
same,glycan array binding signal (z-score),[18],-0.126
same,glycan array binding signal (z-score),[19],0.069
same,glycan array binding signal (z-score),GlcNAc(b1-4)GlcNAc,-0.154
same,glycan array binding signal (z-score),[20],-0.151
same,glycan array binding signal (z-score),[21],-0.205
same,glycan array binding signal (z-score),[22],0.166
same,glycan array binding signal (z-score),[23],-0.148
same,glycan array binding signal (z-score),[24],-0.217
